# Some of the results follow. The full chains were built here from the parent and the listed change. Inactive controls read about 0.05.
# B1: TEV protease; numbered along this chain (parent)
# chain: MGESLFKGPRDYNPISSSICHLTNESDGHTTSLYGIGFGPFIITNKHLFRRNNGTLVVQSLHGVFKVKDTTTLQQHLVDGRDMIIIRMPKDFPPFPQKLKFREPQREERICLVTTNFQTKSMSSMVSDTSCTFPSGDGIFWKHWIQTKDGQCGSPLVSTRDGFIVGIHSASNFTNTNNYFTSVPKNFMELLTNQEAQQWVSGWRLNADSVLWGGHKVFMVKPEEPFQPVKEATQL
# Variants of: B1
# Assay: raw area under fraction-flipped curve 0-4 h after induction (AUC4h, not background-subtracted), DNA-recorder readout of cleavage of the substrate (dimensionless); higher = more cleavage of the substrate by the protease variant
# Settings: temperature: 34 °C; time window: 0-4 h after rhamnose induction
# 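Also: Bxb1 expression induced with 0.2% (w/v) L-rhamnose at OD600 near 0.5, cultures sampled hourly, flipped fraction per protease–substrate barcode pair counted by paired-end Illumina sequencing.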
variant,measurement,value
F95M,area with substrate ENLYFFS,0.0565
same,area with substrate ENLYFPS,0.0694
V58P,area with substrate ENLYFES,0.0331
same,area with substrate ENLYFPS,0
same,area with substrate ENLYFRS,0.0354
same,area with substrate ENLYFTS,0.0281
W199G,area with substrate ENLYFDS,0.0575
same,area with substrate ENLYFES,0.063
same,area with substrate ENLYFFS,0.0689
same,area with substrate ENLYFHS,0.0454
same,area with substrate ENLYFIS,0.0565
same,area with substrate ENLYFKS,0.0645
same,area with substrate ENLYFLS,0.0608
same,area with substrate ENLYFMS,0.0526
same,area with substrate ENLYFNS,0.0561
same,area with substrate ENLYFPS,0.0563
same,area with substrate ENLYFSS,0.0606
same,area with substrate ENLYFTS,0.046
same,area with substrate ENLYFVS,0.062
same,area with substrate ENLYFWS,0.0613
T119M,area with substrate ENLYFES,0.0695
same,area with substrate ENLYFFS,0.062
same,area with substrate ENLYFMS,0.0598
same,area with substrate ENLYFNS,0.0618
same,area with substrate ENLYFPS,0.066
same,area with substrate ENLYFTS,0.0659
T119I,area with substrate ENLYFES,0.0637
same,area with substrate ENLYFHS,0.0516
same,area with substrate ENLYFIS,0.0473
same,area with substrate ENLYFKS,0.0488
same,area with substrate ENLYFMS,0.0577
same,area with substrate ENLYFPS,0.0604
same,area with substrate ENLYFSS,0.0627
same,area with substrate ENLYFWS,0.0518
T192S,area with substrate ENLYFCS,0.0512
same,area with substrate ENLYFDS,0.0609
same,area with substrate ENLYFES,0.0591
same,area with substrate ENLYFIS,0.0451
same,area with substrate ENLYFMS,0.0628
same,area with substrate ENLYFNS,0.0652
same,area with substrate ENLYFPS,0.0428
same,area with substrate ENLYFSS,0.0579
same,area with substrate ENLYFTS,0.0649
same,area with substrate ENLYFWS,0.0683
same,area with substrate ENLYFYS,0.0505
K120I,area with substrate ENLYFES,0.0788
same,area with substrate ENLYFFS,0.0646
same,area with substrate ENLYFGS,0.0651
same,area with substrate ENLYFHS,0.0377
same,area with substrate ENLYFIS,0.0503
same,area with substrate ENLYFLS,0.0437
same,area with substrate ENLYFMS,0.0702
same,area with substrate ENLYFPS,0.0573
same,area with substrate ENLYFRS,0.0531
same,area with substrate ENLYFSS,0.0502
same,area with substrate ENLYFTS,0.0559
same,area with substrate ENLYFVS,0.065
K120T,area with substrate ENLYFGS,0.0615
same,area with substrate ENLYFIS,0.0601
same,area with substrate ENLYFLS,0.0654
same,area with substrate ENLYFPS,0.0661
same,area with substrate ENLYFTS,0.0585
same,area with substrate ENLYFYS,0.0578
L56A,area with substrate ENLYFES,0.0632
same,area with substrate ENLYFFS,0.074
same,area with substrate ENLYFIS,0.0506
same,area with substrate ENLYFLS,0.0498
same,area with substrate ENLYFMS,0.0615
same,area with substrate ENLYFPS,0.0906
same,area with substrate ENLYFVS,0.0714
L56H,area with substrate ENLYFDS,0.0378
same,area with substrate ENLYFKS,0.0336
same,area with substrate ENLYFPS,0.0485
same,area with substrate ENLYFSS,0.0503
same,area with substrate ENLYFTS,0.0307
N172C,area with substrate ENLYFCS,0.061
same,area with substrate ENLYFFS,0.0752
same,area with substrate ENLYFGS,0.066
same,area with substrate ENLYFIS,0.0509
same,area with substrate ENLYFMS,0.0593
same,area with substrate ENLYFNS,0.0542
same,area with substrate ENLYFRS,0.0675
same,area with substrate ENLYFSS,0.0627
same,area with substrate ENLYFTS,0.0532
same,area with substrate ENLYFVS,0.0666
C152Q,area with substrate ENLYFFS,0.0778
same,area with substrate ENLYFIS,0.0632
same,area with substrate ENLYFPS,0.0569
same,area with substrate ENLYFTS,0.0627
T174Y,area with substrate ENLYFCS,0.0306
same,area with substrate ENLYFES,0.0531
same,area with substrate ENLYFFS,0.0766
same,area with substrate ENLYFGS,0.0901
same,area with substrate ENLYFHS,0.0613
same,area with substrate ENLYFIS,0.0604
same,area with substrate ENLYFKS,0.0747
same,area with substrate ENLYFMS,0.0695
same,area with substrate ENLYFSS,0.0727
same,area with substrate ENLYFTS,0.057
N24F,area with substrate ENLYFDS,0.062
same,area with substrate ENLYFES,0.0573
same,area with substrate ENLYFFS,0.0315
same,area with substrate ENLYFGS,0.0511
same,area with substrate ENLYFHS,0.0702
same,area with substrate ENLYFIS,0.0646
same,area with substrate ENLYFKS,0.051
same,area with substrate ENLYFLS,0.0539
same,area with substrate ENLYFMS,0.0712
same,area with substrate ENLYFNS,0.0634
same,area with substrate ENLYFPS,0.0718
same,area with substrate ENLYFRS,0.0564
same,area with substrate ENLYFSS,0.06
same,area with substrate ENLYFTS,0.0583
same,area with substrate ENLYFVS,0.062
same,area with substrate ENLYFWS,0.054
K46N,area with substrate ENLYFDS,0.0557
same,area with substrate ENLYFHS,0.0429
same,area with substrate ENLYFIS,0.059
same,area with substrate ENLYFLS,0.0851
same,area with substrate ENLYFNS,0.065
same,area with substrate ENLYFPS,0.0542
same,area with substrate ENLYFRS,0.044
same,area with substrate ENLYFTS,0.0506
same,area with substrate ENLYFVS,0.057
same,area with substrate ENLYFWS,0.0639
P104A,area with substrate ENLYFFS,0.0624
same,area with substrate ENLYFIS,0.0579
same,area with substrate ENLYFMS,0.0669
same,area with substrate ENLYFNS,0.061
same,area with substrate ENLYFPS,0.0795
same,area with substrate ENLYFRS,0.0582
same,area with substrate ENLYFSS,0.0546
same,area with substrate ENLYFTS,0.0429
same,area with substrate ENLYFVS,0.0527
same,area with substrate ENLYFWS,0.0653
same,area with substrate ENLYFYS,0.0421
G8C,area with substrate ENLYFFS,0.0526
same,area with substrate ENLYFRS,0.0624
G8I,area with substrate ENLYFES,0.076
same,area with substrate ENLYFFS,0.0709
same,area with substrate ENLYFKS,0.0616
same,area with substrate ENLYFTS,0.0682
same,area with substrate ENLYFYS,0.0714
L5R,area with substrate ENLYFFS,0.0629
same,area with substrate ENLYFKS,0.0585
same,area with substrate ENLYFNS,0.0678
same,area with substrate ENLYFRS,0.0457
N186V,area with substrate ENLYFCS,0.0536
same,area with substrate ENLYFES,0.047
same,area with substrate ENLYFFS,0.0475
same,area with substrate ENLYFGS,0.0517
same,area with substrate ENLYFHS,0.0586
same,area with substrate ENLYFIS,0.0485
same,area with substrate ENLYFKS,0.0663
same,area with substrate ENLYFMS,0.0427
same,area with substrate ENLYFWS,0.019
K221E,area with substrate ENLYFCS,0.0596
same,area with substrate ENLYFDS,0.0571
same,area with substrate ENLYFFS,0.0652
same,area with substrate ENLYFGS,0.0483
same,area with substrate ENLYFHS,0.0657
same,area with substrate ENLYFIS,0.0612
same,area with substrate ENLYFKS,0.0593
same,area with substrate ENLYFLS,0.0793
same,area with substrate ENLYFMS,0.0646
same,area with substrate ENLYFNS,0.066
same,area with substrate ENLYFPS,0.0561
same,area with substrate ENLYFRS,0.0569
same,area with substrate ENLYFSS,0.0581
same,area with substrate ENLYFTS,0.0534
same,area with substrate ENLYFVS,0.0662
same,area with substrate ENLYFWS,0.0529
same,area with substrate ENLYFYS,0.0805

# Source: the supplement of paper PMC12217912
